# Measurements published in the RNAGym collection of RNA variant scans (doi:10.1093/nar/gkz1192).
# Read counts are not given, so values of variants with three or more changes are uncertain.
# B1: CPEB3 Ribozyme (parent)
# chain: UAACAGGGGGCCACAGCAGAAGCGUUCACGUCGCAGCCCCUGUCAGAUUCUGGUGAAUCUGCGAAUUCUGCUGUAUAUCUC
# Variants of: B1
# Assay: self-cleavage, relative activity (ratio to wild type); higher = more cleavage; in vitro, sequencing
# Method in brief: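 Relative activity compares each variant's cleaved/total read fraction with that of the unmutated ribozyme. To get these fractions, barcoded CPEB3 ribozyme libraries from rounds of error-prone PCR were transcribed with T7 RNA polymerase for 5 hours at 37°C and then given 15 min of DNase I treatment before EDTA was added. The RNAs were reverse transcribed with template switching and sequenced on Illumina, and DNA sequencing linked barcodes to variants. A minimum of 5 reads applied, and three batches were averaged.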
row,Variant,self-cleavage
1,UAACAGGGGGCCACUGCAGAAGCGUUCACGUCGCAGCCCCUGUCAGAUUCUGGUGAAUCUGUGAAUUCAGCCGUAUAUCUC,0.15
2,UAACAGGGGGCCACUGCAGAAGCGUUCCCGUCGCAGCCCCUGUCAGAUUCUGGUGAAUCUGCGAGUCCUGCUGUAUAUCCC,0.14
3,UAACAGGGGGCCACUGCAGAAGCGUUCACGUCGCUGCCCCUGUCAGAUUCUGGUGUAUCUGCGAAUUCUGCUGUAUAUCUC,0.18
4,UAACAGGGGGCCACUGCAGAAGCGUUCGCGUCGCUGCCCCUGUCAGAUUCUGGUGAAUCUGCGAAUUCUGCUGUAUAUCUC,0.23
5,UAACAGGGGGCCACUGCAGAAGCGUUCACGUGGCAGCCCCCGUCUGAAUCUGGUGAAUCUGCGACUUCUGCUGUAUAUCUC,0.14
6,UAACAGGGGGCCACUGCAGAAGCGUUCACGUCGCUGCCCCUGUCAGAUUCUGGUGAAUCUGCGAAUUCUGCUGUAUAACUC,0.18
7,UAACAGGGGGCCACUGCAGAAGCGUUCACGUCGUAGCCCCUGUCAGAUUCUGGUGGAACUGCGAAUUCUGCUGUAUAUCUC,0.12
8,UAACAGGGGGCCACUGCAGAAGCGUUCAUGUCGCAGCCCCUGUCAGAUUCUAGUGAAUCUGCGAACUCUGCAGUUUAUCUC,0.15
9,UAACAGGGGGCCACUGCAGAAGCGUUCACGUCGCGGCCCCCGUCAGAUUCUGGUGAAUCUGCGAAUUCUGCAGUAUAUCUC,1
10,UAACAGGGGGCCACUGCAGAAGCGUUCACGUCGCAGCCCCUGUUAGAUUCUGGAGAAUCUGCGAAUUCUGCUGUACAUCUC,0.08
11,UAACAGGGGGCCACUGCAGAAGCGUUCACGUCGCAGCCCCUGUCAGAUUCUGGUGAGUCUGCGUAUUCUGCUGUAUAUCUC,0.14
12,UAACAGGGGGCCACUGCAGAAGCGUUCACGUCGCAGCCCCUGUCAGAUUCUGGUGUAUCUGCGAAUCACGCUGUAUAUCUC,0.09
13,UAACAGGGGGCCACUGAAGAAGCGUUCACGUCGCAGCCCCUGUCAGAUUGUGGUGAAUCUGCGAAUUCUGCUGUAUAUCUC,0.24
14,UAACAGGGGGCCACUGCAGAAGCGUUCACGUCGCGGCCCCUGUCAGAUUCUGGUGAAUCUGCGAAUUCUGCAGUAUAUCUC,1.26
15,UAACAGGGGGCCACUGCAGAAGCGUUCACGUCGCAGCCCUUGUCAGAUUCUGGUGGAUCUGCGAGUUCUGCUGUAUAUCUC,0.23
16,UAACAGGGGGCCACUGCAGAUGCGUUCACGUCGCAGCCCCUGUCAGAUUCUGGUGAAUCUGCGAAUUCUGCCGUAUAUCUC,0.18
17,UAACAGGGGGCCACUGCAGAAGCGUUCACGUCGCAGCCCCUGUCGGAUUCUAGUGAAUCUGCGAGUUCUGCUGUAUAUCUC,0.48

row,Variant,self-cleavage
1,UAACAGGGGGCCACUGAGGGAGCGUUCACGUCGCAGCCCCUGUCAGAUUCUGGUGAAUCUGCGAAUUCUGCUGUAUAUCUC,0.35
2,UAACAGGGGGCCACUGCAGAAGCGUUCACGUCGCAGCCCCUGUCAGGUUCUGGUGUAUCUGCGAAUCCUGCUGUGUAUCUC,0.1
3,UAACAGGGGGCCACUGCAGAAGCGUUCACGUCGCUGCCCCUGCCAGAUUCUGGUGAAUCUGCGAAUUCUGCUGUAUAUCUC,0.22
4,UAACAGGGGGCCACUACAGAAGCGUUCACGUCGCAGCCCCUGUCAGAUUCUGGUGAAUCUGCGAUUUCUGCUGUAUAUCUC,0.11
5,UAACAGGGGGCCACUGCAGAAGCGUUCACGUCGCGGCCCCUGACAGAUACUGGUGAAUCAGCGUAUUCUGCUGUAUAUCUC,0.41
6,UAACAGGGGGCCACUGCAGAAGUGUUCACGUCGCAGCCCCUGUCAGAUUCUGGCGAAUCUGCGUAUCCUGCUGUAUAUCUC,0.14
7,UAACAGGGGGCCACUGCAGAAGCGUUCACGUCGGAGCCCCUGUCAGAUUCUGGUGAAUCUGCGGAUCCUGCUGUAUAUCUC,0.03
8,UAACAGGGGGCCACUGCAGAAGCGUUCACGUCGCAGCACCUGUCAGGUUCUGGUGAGUCUGCGAAUUCUGCCGUAUAUCUC,0.15
9,UAACAGGGGGCCACUACAGAAGCGUUCACGUCGCAGCCCCCGUCAGAUUCUGGUGAAUCUGCUAAUUCUGCUGUAUAUCUC,0.32
10,UAACAGGGGGCCACUGCAGAAGCGUUCACGUCGCAGCGCCUGUCAGAUUCUGGUGAACCUGCGAAUUCGGCUGUAUAUCUC,0.05
11,UAACAGGGGGCCACUGCAGAAGCGUUCACGUCGCAGCCCCUGUCUGACUCUGGUGGAUCUGCGAAUUCUGCUGUAUAUCUC,0.2
12,UAACAGGGGGCCACUGCAGAAGCGUUCGCGUCGCGGCCCCUGUCAGAUUCUGGUGAUUCUGCGAAUCCUGCUGUAUAUCUC,0.11
13,UAACAGGGGGCCACUGCAGAAGCGUUCAUGUUGCAGCCCCUGUCAGAUUCUGGUGUAUCUGCGAGUUCUGCUGUAUAUCUC,0.05
14,UAACAGGGGGCCACUGCAGAAGCGUUCACGUCGCAGCCCCUGUCAGGUUCUGGUGAAUCUGCGAACUCUGCUUUAUAUCUC,0.41
15,UAACAGGGGGCCACUGCAGAAGCGUUCGCGUCGCAGCCCCUGUCAGAUUCUGGUUAAUCUGCGAAUUCUGCUGUAUAUCUC,0.18
16,UAACAGGGGGCCACUGCAGAAGCGUUCACGUCGCAGCCCCUGUCAGAUUGUGGAGAAUCUGCGAAUUCUACUGUAUAUCUC,0.12
17,UAACAGGGGGCCACUGCAGAAGCGUUCUCGUCGCAGCCCAUGUCAGAUUCUAGUGAAUCUGCGAAUUCUGCUGUAUAUCUC,0.19
